In paper PMC9671898:
Results are given in words; binding and its absence hold for the method and conditions named. For some of these results: Binding seen in cells or lysates may run through a third protein. Some results given as binding are weak or reduced against the parent protein; the word gives no strength. For some of these results: Where a sequence is shown, tags or fusion partners need not be part of it. One block for each binder: values may come before it.

By UniProt entry, the sequences of proteins in these tests, tags left out. Where a name states a change or a piece, a line headed by the entry shows the natural chain unless it says otherwise.
UniProt Q9LU44: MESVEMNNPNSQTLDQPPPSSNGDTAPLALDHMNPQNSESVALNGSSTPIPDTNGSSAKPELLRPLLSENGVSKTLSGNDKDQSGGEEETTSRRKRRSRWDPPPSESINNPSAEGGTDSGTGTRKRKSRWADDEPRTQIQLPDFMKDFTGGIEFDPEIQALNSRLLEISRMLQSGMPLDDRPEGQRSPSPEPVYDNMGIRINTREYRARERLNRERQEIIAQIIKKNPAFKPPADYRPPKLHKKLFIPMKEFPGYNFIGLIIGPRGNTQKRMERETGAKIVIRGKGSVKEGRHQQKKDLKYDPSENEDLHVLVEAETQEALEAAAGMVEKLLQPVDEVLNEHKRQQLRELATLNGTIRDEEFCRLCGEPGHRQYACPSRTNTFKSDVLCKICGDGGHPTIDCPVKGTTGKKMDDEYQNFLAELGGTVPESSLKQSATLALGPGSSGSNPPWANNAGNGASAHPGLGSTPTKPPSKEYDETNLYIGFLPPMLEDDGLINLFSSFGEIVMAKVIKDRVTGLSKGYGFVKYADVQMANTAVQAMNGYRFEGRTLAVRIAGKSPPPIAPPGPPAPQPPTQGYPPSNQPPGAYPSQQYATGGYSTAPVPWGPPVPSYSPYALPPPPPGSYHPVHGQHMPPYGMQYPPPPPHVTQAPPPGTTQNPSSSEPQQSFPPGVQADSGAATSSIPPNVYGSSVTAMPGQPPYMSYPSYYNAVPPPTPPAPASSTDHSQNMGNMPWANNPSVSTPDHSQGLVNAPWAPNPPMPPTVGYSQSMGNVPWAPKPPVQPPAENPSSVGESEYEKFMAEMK
UniProt Q96524: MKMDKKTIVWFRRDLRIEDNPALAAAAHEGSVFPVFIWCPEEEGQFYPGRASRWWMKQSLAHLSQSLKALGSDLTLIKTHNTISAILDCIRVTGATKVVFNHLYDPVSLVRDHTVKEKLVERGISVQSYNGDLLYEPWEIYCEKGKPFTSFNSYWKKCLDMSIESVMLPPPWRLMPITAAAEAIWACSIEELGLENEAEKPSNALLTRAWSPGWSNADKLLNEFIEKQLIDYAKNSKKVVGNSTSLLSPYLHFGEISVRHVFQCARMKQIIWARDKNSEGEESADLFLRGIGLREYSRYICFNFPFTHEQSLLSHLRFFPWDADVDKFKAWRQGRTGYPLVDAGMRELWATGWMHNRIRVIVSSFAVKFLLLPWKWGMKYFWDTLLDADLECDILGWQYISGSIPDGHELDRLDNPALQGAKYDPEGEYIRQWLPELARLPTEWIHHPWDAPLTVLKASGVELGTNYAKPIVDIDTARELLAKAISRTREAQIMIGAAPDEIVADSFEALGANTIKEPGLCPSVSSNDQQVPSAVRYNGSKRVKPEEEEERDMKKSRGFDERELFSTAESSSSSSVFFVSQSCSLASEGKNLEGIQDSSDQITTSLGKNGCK

Tests used:
[1] = molecular target: T1, human CRY2 (hCRY2) in pBridge (human) (UniProt Q49AN0); experiment: two-hybrid; hCRY2 in pBridge, human G-patch proteins in pGADT7, yeast strain AH109, histidine auxotrophy on -Leu/-Thr/-His/-Ade plates, 28 °C, 2-3 days; the discussion says both in darkness and blue light conditions
T1 sequence: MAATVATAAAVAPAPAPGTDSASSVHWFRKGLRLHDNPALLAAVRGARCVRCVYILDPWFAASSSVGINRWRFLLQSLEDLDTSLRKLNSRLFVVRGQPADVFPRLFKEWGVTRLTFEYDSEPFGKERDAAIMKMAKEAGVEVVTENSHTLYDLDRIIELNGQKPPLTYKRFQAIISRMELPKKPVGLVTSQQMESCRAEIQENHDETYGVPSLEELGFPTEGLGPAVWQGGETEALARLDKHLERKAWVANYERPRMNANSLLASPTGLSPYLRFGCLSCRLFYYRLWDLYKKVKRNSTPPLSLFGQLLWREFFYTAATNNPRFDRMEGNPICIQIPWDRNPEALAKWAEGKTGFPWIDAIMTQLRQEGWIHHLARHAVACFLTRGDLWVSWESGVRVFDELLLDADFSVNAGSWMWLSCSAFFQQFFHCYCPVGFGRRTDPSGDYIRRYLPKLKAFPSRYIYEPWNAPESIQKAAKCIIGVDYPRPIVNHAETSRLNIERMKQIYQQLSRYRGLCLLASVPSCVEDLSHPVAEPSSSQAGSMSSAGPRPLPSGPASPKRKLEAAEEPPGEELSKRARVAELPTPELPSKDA

[2] = molecular target: Arabidopsis SF1 homolog (At5g51300), BiFC fusion (Arabidopsis thaliana) (UniProt Q9LU44); experiment: split reporter; BiFC: fusions to CFP(155-238) and YFP(1-172) co-infiltrated into N. benthamiana leaves; plants left under long days, white light, 3 days
[3] = molecular target: cLUC-CRY2 (Arabidopsis thaliana) (UniProt Q96524); experiment: split reporter; BiLC: fusions to the C- or N-terminus of firefly luciferase co-infiltrated into N. benthamiana leaves; LD white light, 3 days; luciferin, CCD camera
[4] = molecular target: CRY2^W374A fused to the GAL4 DNA binding domain (pBridge) (Arabidopsis thaliana) (UniProt Q96524); experiment: two-hybrid; quantitative β-galactosidase assay, yeast strain Y190, bait in pBridge, prey in pGADT7, 28 °C, cells kept in darkness
[5] = molecular target: CRY2 fused to the GAL4 DNA binding domain (bait plasmid pBridge-CRY2) (Arabidopsis thaliana) (UniProt Q96524); experiment: as above
[6] = molecular target: CRY2^W374A fused to the GAL4 DNA binding domain (pBridge) (Arabidopsis thaliana) (UniProt Q96524); experiment: two-hybrid; quantitative β-galactosidase assay, yeast strain Y190, bait in pBridge, prey in pGADT7, 28 °C, cells exposed to blue light (30 μmol m^-2 s^-1) for up to 180 min
[7] = molecular target: CRY2 fused to the GAL4 DNA binding domain (bait plasmid pBridge-CRY2) (Arabidopsis thaliana) (UniProt Q96524); experiment: as above
[8] = molecular target: CRY2^D387A fused to the GAL4 DNA binding domain (pBridge) (Arabidopsis thaliana) (UniProt Q96524); experiment: as above
[9] = molecular target: nYFP-CRY2 (Arabidopsis thaliana) (UniProt Q96524); experiment: split reporter; BiFC: fusions to CFP(155-238) and YFP(1-172) co-infiltrated into N. benthamiana leaves; plants left under long days, white light, 3 days
[10] = molecular target: nYFP-CRY2^D387A (Arabidopsis thaliana) (UniProt Q96524); experiment: as above
[11] = molecular target: T2, cCFP-U2AF65B (Arabidopsis thaliana) (UniProt Q8L716); experiment: as above
T2 sequence: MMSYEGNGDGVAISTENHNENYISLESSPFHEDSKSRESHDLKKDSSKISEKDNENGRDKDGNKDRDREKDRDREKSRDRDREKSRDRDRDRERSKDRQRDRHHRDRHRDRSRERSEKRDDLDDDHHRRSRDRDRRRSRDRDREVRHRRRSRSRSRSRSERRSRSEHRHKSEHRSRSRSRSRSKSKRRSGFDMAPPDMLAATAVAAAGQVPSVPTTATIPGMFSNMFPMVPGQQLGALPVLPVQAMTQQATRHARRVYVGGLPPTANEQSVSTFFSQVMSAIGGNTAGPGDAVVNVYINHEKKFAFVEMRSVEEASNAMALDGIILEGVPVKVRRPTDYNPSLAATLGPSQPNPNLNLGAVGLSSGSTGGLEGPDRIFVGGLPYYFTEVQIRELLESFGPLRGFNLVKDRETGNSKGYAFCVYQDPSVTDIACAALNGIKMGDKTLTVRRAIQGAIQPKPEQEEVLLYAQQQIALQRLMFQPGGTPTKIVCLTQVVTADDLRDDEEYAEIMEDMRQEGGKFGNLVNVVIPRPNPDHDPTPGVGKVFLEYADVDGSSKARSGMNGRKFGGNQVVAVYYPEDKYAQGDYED

[12] = molecular target: T3, cCFP-U2AF65A (Arabidopsis thaliana) (UniProt O23212); experiment: as above
T3 sequence: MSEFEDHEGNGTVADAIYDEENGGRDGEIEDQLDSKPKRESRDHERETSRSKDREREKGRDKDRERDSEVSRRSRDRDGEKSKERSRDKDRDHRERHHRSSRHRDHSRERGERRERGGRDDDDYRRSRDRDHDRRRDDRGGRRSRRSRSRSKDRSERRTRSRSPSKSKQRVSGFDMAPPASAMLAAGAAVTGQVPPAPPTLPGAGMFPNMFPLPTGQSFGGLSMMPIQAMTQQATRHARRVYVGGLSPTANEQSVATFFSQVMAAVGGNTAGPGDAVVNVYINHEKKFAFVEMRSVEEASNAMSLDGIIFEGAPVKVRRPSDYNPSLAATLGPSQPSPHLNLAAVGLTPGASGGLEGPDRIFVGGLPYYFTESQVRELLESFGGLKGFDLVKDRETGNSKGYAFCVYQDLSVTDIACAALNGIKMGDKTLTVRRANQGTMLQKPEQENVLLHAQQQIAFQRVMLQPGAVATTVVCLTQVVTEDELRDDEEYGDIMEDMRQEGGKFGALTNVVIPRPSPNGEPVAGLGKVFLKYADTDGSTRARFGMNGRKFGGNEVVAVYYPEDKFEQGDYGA

B2: CIS1, BiFC fusion used with SF1 (protein, UniProt Q94C11 1-443)
chain: MDKGAPPSIFVNDGSFMERFRQLQQEKDKDKDKVVQVEDSKPVKIISNPKPAANKISIGLKPNDAQKKGGKLAFSLKQKSKLLAPPVKLGTEEDEDDEDVKHEQGFGSVKRQKLEQRDTPVKSAKVSDVAPPPPSDPTVKKVADKLASFVAKHGRPFEHITRQKNPGDTPFKFLFDENCADYKYYVFRLAEEEKLISQTKDSGVLHSGDAGSRTSTAAIPLQKPAYQQTGYQIPASALYDTPVEPGASSRSAQASITRPSDSDSFSGPRGADPLSMMEFYMKKAAQEEKMRRPRQSKDEMPPPASLQGPSETSSTDPGKRGHHMGDYIPLEELDKFLSKCNDAAAQKATKEAAEKAKIQADNVGHKLLSKMGWKEGEGIGSSRKGMADPIMAGDVKTNNLGVGASAPGEVKPEDDIYEQYKKRMMLGYKHRPNPLGNPRKAYY
binding [2]: binds

B4: CIS1 (CRY2 … SPLICING FACTOR 1) fused to the GAL4 activation domain (pGADT7) (protein, UniProt Q94C11 1-443)
chain: B2 chain
binding [4]: binds | binding [5]: no binding (condition: in darkness (no blue light)) | binding [6]: binds | binding [7]: binds | binding [8]: no binding

B5: CIS1-cCFP (protein, UniProt Q94C11 1-443)
chain: B2 chain
binding [9]: binds | binding [10]: no binding

Now from value to binder:

binding [1]: binds
B1: human SURP and G Patch Domain Containing 1 (hSUGP1) in pGADT7 (protein, UniProt Q8IWZ8 1-645)
chain: MSLKMDNRDVAGKANRWFGVAPPKSGKMNMNILHQEELIAQKKREIEAKMEQKAKQNQVASPQPPHPGEITNAHNSSCISNKFANDGSFLQQFLKLQKAQTSTDAPTSAPSAPPSTPTPSAGKRSLLISRRTGLGLASLPGPVKSYSHAKQLPVAHRPSVFQSPDEDEEEDYEQWLEIKVSPPEGAETRKVIEKLARFVAEGGPELEKVAMEDYKDNPAFAFLHDKNSREFLYYRKKVAEIRKEAQKSQAASQKVSPPEDEEVKNLAEKLARFIADGGPEVETIALQNNRENQAFSFLYEPNSQGYKYYRQKLEEFRKAKASSTGSFTAPDPGLKRKSPPEALSGSLPPATTCPASSTPAPTIIPAPAAPGKPASAATVKRKRKSRWGPEEDKVELPPAELVQRDVDASPSPLSVQDLKGLGYEKGKPVGLVGVTELSDAQKKQLKEQQEMQQMYDMIMQHKRAMQDMQLLWEKAVQQHQHGYDSDEEVDSELGTWEHQLRRMEMDKTREWAEQLTKMGRGKHFIGDFLPPDELEKFMETFKALKEGREPDYSEYKEFKLTVENIGYQMLMKMGWKEGEGLGSEGQGIKNPVNKGTTTVDGAGFGIDRPAELSKEDDEYEAFRKRMMLAYRFRPNPLNNPRRPYY

binding [3]: binds
B3: CIS1-nLUC (protein, UniProt Q94C11 1-443)
chain: B2 chain

binding [11]: no binding | binding [12]: binds
B6: CIS1-nYFP (protein, UniProt Q94C11 1-443)
chain: B2 chain

binding [3]: binds
B7: CIS2 (At1g63980) fused to a half of firefly luciferase (protein, UniProt Q940M0 1-391)
chain: MAAPEAPVKYVGICKDSAAFKLMKSMGWEEGEGLGKDKQGIKGYVRVTNKQDTSGVGLDKPNPWAFDTTQFDNILKKLKVQAAPTKTSKNDDDSDKEDESEDDAVKSEPAKLKTVAKVTRPQGRYKRREKGKLVNSYSSKDLEGILVKRTEDPSPAVCDIADSMDIEIISEDQDASIKEQKIEEPSSNWWGFKSGFVSGGLLGAKSGKKKLKASERKMFSENDQENLYNMVQDKATAGKQGLGIKDRPKKIAGVRYEGKKTSFDNSDDDDDDDDDDDEEDEEEDEDESEADDDDKDSVIESSLPAKRKHDEIIEPKIKLKNLCKQIVKKDAGKGGFMKLKQLKSLIDEQAPSVLSEFSSRKDAIAYLKLKLERSGKFVVEGKKISLVSSKK
